Results as given in PubChem BioAssay AID1030 (National Center for Advancing Translational Sciences (NCATS), 2008).
Hit rate of the full screen: of about 220,000 compounds, about 16,000 (7.3%) were called active. This list was built around the results that the source calls inconclusive (neither active nor inactive); the mix of calls is not that of the screen. Calls come from the whole dose curve; as a rule, active = well fitted inhibition curve with a large enough effect (not every such curve was filed as active); inconclusive = small, poorly fitted or top-dose-only effect, or another doubt; inactive = no such curve, though single readings can be large or run the other way. Potencies of inconclusive entries are left out as doubtful fits.

Target: Aldehyde dehydrogenase 1A1 (Homo sapiens) (UniProt P00352)
Assay: qHTS Assay for Inhibitors of Aldehyde Dehydrogenase 1 (ALDH1A1)
Conditions: Purified ALDH1A1, NADH fluorescence, propionaldehyde substrate; series mostly up to 75.3 µM
Potency is the fitted concentration of half-maximal effect; tags give direction and shape of the fitted curve.

UniProt P00352, sequence (P00352 whole entry, looked up): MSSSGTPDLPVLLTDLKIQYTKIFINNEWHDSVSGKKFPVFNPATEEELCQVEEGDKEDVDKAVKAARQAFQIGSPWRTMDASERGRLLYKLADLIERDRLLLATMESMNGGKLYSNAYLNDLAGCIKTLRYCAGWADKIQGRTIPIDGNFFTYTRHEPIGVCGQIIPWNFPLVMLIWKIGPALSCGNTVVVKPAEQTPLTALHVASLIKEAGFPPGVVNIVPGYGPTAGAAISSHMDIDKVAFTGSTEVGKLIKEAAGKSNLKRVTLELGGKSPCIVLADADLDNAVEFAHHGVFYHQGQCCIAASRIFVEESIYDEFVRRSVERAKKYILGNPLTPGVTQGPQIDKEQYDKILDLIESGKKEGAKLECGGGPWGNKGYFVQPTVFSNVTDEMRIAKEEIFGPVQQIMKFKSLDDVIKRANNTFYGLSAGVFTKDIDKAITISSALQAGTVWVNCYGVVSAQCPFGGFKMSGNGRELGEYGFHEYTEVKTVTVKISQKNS

SMILES | Potency
O=c1[nH]c2ccccc2c(=O)n1CCCO | inconclusive [inhibitor, single point]
CC1(C)CC(=O)C2=C(C1)OC(N)=C(C#N)C2c1cccc(OC(=O)c2ccco2)c1 (stereo not drawn) | inconclusive [inhibitor, single point]
CC(C)(CNC(=O)c1ccc([N+](=O)[O-])c(Cl)c1)CNC(=O)c1ccc([N+](=O)[O-])c(Cl)c1 | inactive
CCOc1cc2[nH]c(=O)n(Cc3ccccc3)c(=O)c2cc1OCC | inconclusive [inhibitor, full curve]
COc1cc(C(=O)N/N=C/c2ccc(OC)c(CN3CCN(c4ccc(F)cc4)CC3)c2)ccc1O | inconclusive [inhibitor, single point]
CC1=C(C(=O)OCc2ccccc2)C(c2ccc(Cl)cc2Cl)NC(=O)N1CCCC(=O)O (stereo not drawn) | inactive
CC(=O)c1ccc(S(=O)(=O)N2CCNCC2)cc1 | inconclusive [inhibitor, single point]
Cc1ccc2nc(-c3ccccc3)nc(SC(C)C(=O)NCc3cccs3)c2c1 (stereo not drawn) | inactive
COc1cc2c(cc1OC)C1=C(C#N)COCN1CC2 | inconclusive [inhibitor, partial curve]
COc1ccc(C(=O)NCC(=O)NCC2COc3ccccc3O2)cc1 (stereo not drawn) | inconclusive [inhibitor, partial curve]
CCN(CC)c1ccc(C=C2C(=O)OC(c3ccccc3)OC2=O)cc1 (stereo not drawn) | active: 0.282 µM
Cc1cccc(NS(=O)(=O)c2cc(C(=O)N3CCCC3)ccc2Cl)c1 | inconclusive [inhibitor, single point]
C=CCn1c(O)c(N=NC(=S)Nc2cccc(OC)c2)c2ccccc21 | inconclusive [inhibitor, single point]
CC(C)(c1ccccc1)c1ccc(OCCCNCCO)cc1 | inactive
O=C(c1ccco1)N1CCN(C(c2ccccc2Cl)c2nnnn2Cc2ccco2)CC1 (stereo not drawn) | active: 11.2 µM
Cc1cc(NC(=O)c2cc(-c3ccc(C)c(C)c3)nc3ccccc23)no1 | inconclusive [inhibitor, single point]
Fc1ccc(NC(=S)N2CCc3[nH]c4ccccc4c3C2)cc1 | inactive
CC(C)c1nc(SCC(=O)NCc2ccccc2)n[nH]1 | inactive
COc1cccc(-c2nc(CS(=O)(=O)CC(=O)N3CCc4ccccc4C3)c(C)o2)c1 | inconclusive [inhibitor, single point]
COc1cc(C(=O)Nc2sc3c(c2C#N)CCN(C(C)=O)C3)cc(OC)c1OC | inconclusive [inhibitor, single point]
O=C(NN=C1CCCCCCCCCCC1)c1ccncc1 | inconclusive [inhibitor, single point]
CCCCC(=O)Nc1nc(C)c(-c2csc(Nc3ccc(Cl)cc3)n2)s1 | active: 11.2 µM
O=C(c1cnc2ccccn2c1=O)N1CCc2ccccc21 | inconclusive [inhibitor, partial curve]
Cn1c(=O)c([N+](=O)[O-])c(NCC(O)c2ccccc2)c2ccccc21 (stereo not drawn) | inconclusive [inhibitor, partial curve, poor fit]

SMILES | Potency
COc1ccc(S(=O)(=O)NCC2CCCN(C(=O)CNC(C)=O)C2)cc1 (stereo not drawn) | inconclusive [inhibitor, partial curve]
CN(Cc1cnccn1)Cc1nc(Cc2cccc(F)c2)no1 | inactive
O=C(Nc1c2c(nc3ccccc13)CCCC2)c1ccccc1F | inactive
CCc1ccc(-c2cc(N)n(-c3ccccc3)n2)cc1 | inactive
Cc1cc(=O)c2ccccc2s1 | inconclusive [inhibitor, single point]
COC(C(=O)Nc1ccc(Cl)cc1C)c1ccccc1 (stereo not drawn) | inactive
CCOc1cc(CN2CCC(CO)(Cc3cccc(C(F)(F)F)c3)CC2)ccc1OC | inactive
COc1cc(C2Nc3cccc4cccc(c34)N2)ccc1OC(C)=O | inconclusive [inhibitor, partial curve, poor fit]
CCOC(=O)c1c(-c2ccc(C)cc2)csc1NC(=O)c1cc2ccccc2oc1=O | inconclusive [inhibitor, single point]
CC(C)CNc1oc(-c2ccc(F)cc2)nc1C#N | inconclusive [inhibitor, partial curve]
COc1ccc(S(=O)(=O)N2CCCCC2)cc1NC(=O)c1ccc([N+](=O)[O-])o1 | active: 3.16 µM
CCOc1ccc(NC(=O)COC(=O)Cc2ccc(S(=O)(=O)N3CCOCC3)s2)cc1 | inconclusive [inhibitor, partial curve]
CCCSc1nnc(-c2cnn(-c3ccccc3)c2-n2cccc2)n1C | inconclusive [inhibitor, partial curve]
COc1ccc(NC(=S)NCCCN2CCN(C3CCCCC3)CC2)cc1 | inactive
N#CCCN(/N=C/c1cccnc1)C1=NS(=O)(=O)c2ccccc21 | active: 2 µM
O=C1NC(=O)/C(=C\c2ccccc2OCc2ccccc2)S1 | inconclusive [inhibitor, partial curve]
COCCCN(C(=S)Nc1ccc(C)cc1Cl)C(C)c1ccncc1 (stereo not drawn) | inactive
CCOc1ncccc1C(=O)OCc1c(Cl)cccc1Cl | inactive
Cc1cccc(NC(=O)c2c([N+](=O)[O-])c(C(C)(C)C)nn2C)c1 | inactive
CCOC(=O)CCCNC(=O)N1CCc2nc(-c3ccc(OC)cc3C)c3c(c2C1)CO[C@@H](c1ccccc1)C3 | inconclusive [inhibitor, partial curve]
O=C(Cn1ccc([N+](=O)[O-])n1)N1CCCCC1 | inactive
CC1CCCCC1NC(=O)COC(=O)c1ccc2ccccc2n1 (stereo not drawn) | inconclusive [inhibitor, single point]
COC(=O)c1c(Cl)c2n3ccccc3c(C)c(-c3ccccc3)c-2c1C(=O)OC | active: 12.6 µM
O=C(CS(=O)(=O)Cc1ccccc1)NCC1CCCO1 (stereo not drawn) | active: 25.1 µM
